Laboratory results from the supplement of paper PMC5499739.
Whole data set: some 16,000 sequences, median “Z-score” near -0.37, cut for the highest 2% near 3.2. The list shows a part of the results.

Tested on: RBM10 RRM1-ZnF (GST-tagged construct)
Assay: RNAcompete 7-mer binding Z-score; higher = stronger binding preference
Procedure, shortened: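 GST-tagged RBM10 constructs (20 pmol) were mixed with a designed pool of 241 399 RNAs up to 41 nt (1.5 nmol), transcribed from microarray-derived DNA templates. Mixing was in 1 ml Hepes pH 7.8 buffer with KCl, NaCl, glycerol, DTT, BSA and glutathione Sepharose beads. Binding ran 30 min at 4°C, followed by four 2-min washes at 4°C, and bound RNA was identified by microarray hybridisation. Each heptamer motif received a one-sided Z-score for enrichment across probes containing it.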

Row | Sequence | RNAcompete 7-mer binding Z-score
1 | AAGUACA | -0.0577
2 | UUCAGUC | -0.604
3 | GGGUAUC | 2.04
4 | CGGGGUA | 3.2
5 | GAAGCAC | -0.113
6 | AUUUGCU | -0.769
7 | CGUUCUU | -0.737
8 | AAGAGCA | 0.303
9 | CGACUUA | -0.642
10 | GUAGACU | -0.136
11 | CUCCGAG | -0.652
12 | CACGUUC | -0.743
13 | CGAUCGC | -0.548
14 | UGGUUUC | 0.625
15 | CACCGUU | -0.704
16 | UUUCAUG | -0.558
17 | CUACAGG | 0.378
18 | UAUUAUU | -0.61
19 | CCCGCCG | -0.399
20 | AGUUCAU | -0.535
21 | GACUCCA | -0.672
22 | AUCUAGC | -0.698
23 | UGUCCUU | -0.672
24 | AUACGAG | -0.184

Row | Sequence | RNAcompete 7-mer binding Z-score
25 | AUGUCGG | 0.446
26 | CGAGUCC | -0.675
27 | AAAUAUC | -0.552
28 | AAGCAGG | 2
29 | GUUAACG | 0.498
30 | AACUGAA | -0.34
31 | CAAGACA | -0.21
32 | CUAUCUG | -0.805
33 | GUACGUA | 0.352
34 | UCGCUCU | -0.772
35 | GGAUGCU | 0.8
36 | ACACAUA | -0.61
37 | CCAAGCA | -0.535
38 | GCUUGGC | -0.126
39 | UAUCCGA | -0.815
40 | GCUGUAU | -0.376
41 | CGGCUCC | -0.353
42 | CGGGACA | 0.807
43 | CUUAUAA | -0.714
44 | UAUGCUU | -0.604
45 | AGUGACU | -0.184
46 | GAACGCG | 0.244
47 | CGAUAAG | 0.348
48 | UAGCAAA | -0.178

Row | Sequence | RNAcompete 7-mer binding Z-score
49 | CCGGUAU | -0.197
50 | AUUAUGU | -0.422
51 | GUCGUAG | 0.056
52 | UUCACUG | -0.655
53 | CUCGCUG | -0.623
54 | GAUUUGC | -0.444
55 | UUUUUAG | -0.522
56 | AGACUCG | -0.714
57 | GCGUCUG | -0.295
58 | ACUCAUC | -0.746
59 | AUUGGCU | -0.0187
60 | ACCGUUG | -0.399
61 | CAAACCU | -0.805
62 | UUAGGCC | -0.48
63 | GAUGGCA | 1.06
64 | UGGGCGU | 2.14
65 | GGCAGAG | 1.85
66 | UCAGACU | -0.623
67 | UUGUUCC | -0.626
68 | GAGCAAG | 1.33
69 | CCAUCCU | -0.763
70 | CCUGUGG | 0.339
71 | CGGUUUA | 0.235
72 | UCUCCGA | -0.743

Row | Sequence | RNAcompete 7-mer binding Z-score
73 | AUAAUAG | 0.0333
74 | UGAAAUC | -0.49
75 | ACAAUAG | 0.0528
76 | CAGGGAG | 2.8
77 | UGAUUCC | -0.698
78 | ACGGAGU | 1.28
79 | CGGAAGC | 0.283
80 | CGAUAAU | -0.535
81 | CCUGAGA | -0.555
82 | UUGUGUC | -0.526
83 | UGAGGUC | 0.683
84 | GUCAAUG | -0.035
85 | CAUCUGC | -0.72
86 | UCGGGCU | 0.069
87 | GGUUUCC | 0.3
88 | UACUCCG | -0.6
89 | CGUCUUA | -0.792
90 | GGCCCUU | -0.769
91 | CAAUACA | -0.441
92 | AGCGUGC | 0.0398
93 | AGUAUAU | -0.363
94 | UAUGCAA | -0.0382
95 | AUUGUAA | -0.412
96 | UACGUUA | -0.545

Row | Sequence | RNAcompete 7-mer binding Z-score
97 | CCCAACU | -0.727
98 | UACGGGA | 1.8
99 | CGGCCUU | -0.727
100 | CAUCGAC | -0.668
101 | CUGGGUA | 2.13
102 | GCUUCUG | -0.681
103 | CAUACUA | -0.789
104 | AGCUUCC | -0.821
105 | GCUCAUC | -0.818
106 | UUGCGUU | -0.331
107 | UAACACA | -0.246
108 | AUCGUCA | -0.662
109 | GGGCCUA | 0.199
110 | CGCUAGC | -0.636
111 | GGCCCAG | -0.357
112 | GCGGCGC | 0.641
113 | AACGAGG | 1.5
114 | GGCAGAA | 1.19
115 | GUGACAA | 0.456
116 | GGUUGAG | 3.3
117 | GUAAACC | -0.275
118 | GACACAU | -0.467
119 | GACGUCU | -0.688
120 | UGACGGU | 1.14

Row | Sequence | RNAcompete 7-mer binding Z-score
121 | CUAGAAG | 0.000789
122 | UACUACU | -0.584
123 | UUCGUGG | 0.527
124 | CUCUUAC | -0.928
125 | UCGUUUA | -0.646
126 | GAUGGCU | 0.748
127 | CGGAGAG | 0.894
128 | CCCUCAC | -0.584
129 | UCUCGCU | -0.717
130 | CAACGAU | -0.409
131 | GCCUACC | -0.568
132 | UUAAACG | -0.5
133 | UGACAUC | -0.542
134 | GGAUAAA | 1.38
135 | CGGCGCA | 0.0365
136 | UUAGGGG | 2.4
137 | AAUUGCA | -0.448
138 | ACCUAUU | -0.847
139 | GAUGUGA | 0.771
140 | CCCCCCC | 0.0885
141 | GGGUGGU | 4.8
142 | UCGGCAG | -0.126
143 | AUUAGUA | -0.168
144 | UAACAGU | -0.0804

Row | Sequence | RNAcompete 7-mer binding Z-score
145 | UACCGUG | -0.35
146 | GUGUACC | -0.22
147 | CGGUCUG | -0.243
148 | GUGUAUG | 1.29
149 | UACACGC | -0.691
150 | CAAGUCG | -0.292
151 | UUGGGUG | 3.83
152 | CGAAUUU | -0.795
153 | CGAGGGC | 1.06
154 | GCAUCUG | -0.522
155 | ACCAUCG | -0.623
156 | UUAACAC | -0.561
157 | GAUUCAG | 0.017
158 | CAAAACU | -0.6
159 | CAGCGCG | -0.324
160 | AAUUCGU | -0.548
161 | UAAUCAU | -0.574
162 | GGAAGUC | 0.82
163 | CCAGUGU | -0.6
164 | GUCCACU | -0.558
165 | UCCCCAU | -0.73
166 | UAAGGCU | 0.183
167 | AAGCCGU | -0.629
168 | GCCCCUG | -0.0869

Row | Sequence | RNAcompete 7-mer binding Z-score
169 | AGUAGUU | 0.105
170 | UGGCUCG | -0.119
171 | ACCACAU | -0.779
172 | GGAGGAU | 2.46
173 | UCUUUCG | -0.756
174 | GCCCAUC | -0.701
175 | CCGUAGU | -0.457
176 | UGCGCCU | -0.532
177 | UAAGGCG | 1.03
178 | AUACAGU | -0.00571
179 | AGCGAAA | 0.166
180 | GGCCUUC | -0.639
181 | GUGCUGA | 0.761
182 | GGUUCUC | -0.373
183 | ACGUGAU | 0.0495
184 | AACCAGG | 0.738
185 | GGUGAUU | 1.21
186 | UGCACGU | -0.256
187 | AUCAGGC | -0.00896
188 | UGCAGCA | -0.461
189 | GGCCUCA | -0.714
190 | ACGGCCU | -0.629
191 | AGGGUCC | 0.573
192 | UUGGGGA | 2.82

Row | Sequence | RNAcompete 7-mer binding Z-score
193 | AACAAAG | -0.0609
194 | UCCGCGC | -0.529
195 | ACGCACC | -0.519
196 | UUCAGGG | 1.07
197 | CCAUACA | -0.782
198 | AACGAGA | -0.0804
199 | AAUGUGA | 0.657
200 | ACUUGUC | -0.854
201 | AUGUUUA | -0.311
202 | GACGGCC | -0.363
203 | ACAAGCA | -0.204
204 | UUUUAAU | -0.633
205 | AUUCAAA | -0.662
206 | GUCGUCC | -0.454
207 | AUAUCCU | -0.789
208 | UGGAGCC | 0.638
209 | UCUCUAG | -0.688
210 | UGUCGCC | -0.347
211 | CGUAUCC | -0.753
212 | CGUACGU | -0.0577
213 | GCCAUGG | 0.426
214 | GGAGGUA | 3.28
215 | GGGGCGC | 1.89
216 | AGAAGCU | -0.48

Row | Sequence | RNAcompete 7-mer binding Z-score
217 | UACUCGC | -0.581
218 | ACCUCAA | -0.737
219 | GUGAAGG | 3.74
220 | CCCAGCU | -0.457
221 | AUGUACA | -0.0577
222 | UAUCUUU | -0.815
223 | UCCACCU | -0.789
224 | UAAGCGA | -0.123
225 | UAGGGCU | 1.42
226 | AGUAAAU | -0.145
227 | CGUUUCA | -0.776
228 | AAAUUGA | 0.03
229 | GUUGACC | -0.0479
230 | GCAUUUU | -0.938
231 | CAAUUCA | -0.772
232 | ACACCAG | -0.548
233 | CCUCCCC | -0.197
234 | AUGGCCU | -0.428
